Laboratory results published in PubChem BioAssay AID493208 (National Center for Advancing Translational Sciences (NCATS), 2011).
The whole screen tested about 44,000 compounds, of which about 340 (0.77%) were called active. Inconclusive results (about 5%) are left out. The call rests on the fitted dose curve; in most records, active means well fitted inhibition curve with a large enough effect; inconclusive means small, poorly fitted or top-dose-only effect; inactive means flat fitted curve, though single readings scatter. The list shows a part of the results.

Assay: Acumen qHTS Assay for Inhibitors of the mTORC1 Signaling Pathway in MEF (Tsc2-/-, p53-/-) Cells: Sytravon; further: nearly all actives have a fitted effect of over 50% in size;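 on activity change, negative = inhibition: plate controls were DMSO for no effect and rapamycin for full effect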
Settings: phospho-rpS6 immunofluorescence/PI, 24 h; series mostly up to 38.3 µM; activity change, negative = inhibition: at the top concentration
Outline: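 Immunofluorescence of rpS6 phosphorylation in Tsc2-/-, p53-/- MEFs after 24 h compound exposure, normalized to propidium iodide signal. Activity is expressed as % positive cells, thresholded with 7.5 nM rapamycin.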
Potency means the concentration at half of the fitted maximal effect.

Row | Structure (SMILES) | activity change, negative = inhibition | Potency
1 | O=C(NCC(c1cccnc1)N1CCOCC1)C(=O)Nc1ccc(F)cc1 (stereo unspecified) | inactive: -11.2% | 
2 | CCCn1ccc2c(OCC(=O)Nc3ccccc3OCC)cccc2c1=O | inactive: -6.59% | 
3 | Cn1c(SCc2cccc(F)c2)nc2c([nH]c3ccccc32)c1=O | inactive: 0.275% | 
4 | COc1ccc(OC)c(CCNc2nccn(-c3ccc(C)c(C)c3)c2=O)c1 | inactive: -4.52% | 
5 | Cc1ccc(CNC(=O)CCC(=O)N2Cc3ccccc3Oc3ncccc32)cc1 | inactive: -3.11% | 
6 | COc1ccc(Cn2c(=O)[nH]c3cc(C(=O)N4CCN(c5ccccc5)CC4)ccc3c2=O)cc1 | inactive: -0.727% | 
7 | COc1ccc(CCNC(=O)C2CCN(c3nc4ccccc4nc3C(F)(F)F)CC2)cc1OC | inactive: 3.28% | 
8 | O=C(Nc1ccc2nc(SCC(=O)N3CCCc4ccccc43)sc2c1)c1cccc(Cl)c1 | inactive: 0% | 
9 | COCCCNS(=O)(=O)c1ccc(N2CCCCS2(=O)=O)cc1 | inactive: 0% | 
10 | Cc1ccc(NC(=O)CN2C(=O)CSc3ccc(S(=O)(=O)N4CCCC4)cc32)c(C)c1 | inactive: 2.87% | 
11 | COc1ccc(C(=O)Oc2c(Sc3ccccc3)c(C)nn2-c2ccccc2)cc1OC | inactive: -17% | 
12 | COc1ccc(NC(=O)C2=C(C)C(=O)OC23CCN(C(C)C)CC3)cc1Cl | inactive: -3.67% | 
13 | CC(=O)OCc1cnc(C)c2oc(=O)c(C(=O)Nc3ccc(C)cc3Cl)cc12 | inactive: 5.63% | 
14 | CC1CCC(Nc2ncnc3onc(-c4ccc(Cl)cc4)c23)CC1 (stereo unspecified) | inactive: -6.04% | 
15 | COc1ccc(-c2coc3c2c(C)cc2oc(=O)c(C)c(C)c23)cc1 | inactive: 4.94% | 
16 | Cc1ccc(CNC(=O)c2oc3ccc(S(=O)(=O)N4CCC(C)CC4)cc3c2C)cc1 | inactive: -14.6% | 
17 | CCCCN1C(=O)CN(C2CCCCCC2)C(=O)C1c1ccc(OC(C)C)c(OC)c1 (stereo unspecified) | inactive: -7.06% | 
18 | Cc1cccc(OCC(=O)Nc2ccc3nc(Nc4cccc(C(F)(F)F)c4)cc(C)c3c2)c1 | inactive: 0.488% | 
19 | CCCCNC(=O)c1cc2c(=O)n3cccc(C)c3nc2s1 | inactive: 7.47% | 
20 | COc1ccccc1CNC(=O)c1ccc2c(c1)N(Cc1cc(C)ccc1C)C(=O)c1ccccc1S2 | inactive: 5.41% | 
21 | COc1ccc(-c2cc(C(F)(F)F)n3nc(C(=O)O)c(Cl)c3n2)cc1OC | inactive: 0.146% | 
22 | CCOc1ccc(NC(=O)Cn2cc(C(=O)c3ccc(F)cc3)c(=O)c3cc4c(cc32)OCCO4)cc1 | inactive: -6.43% | 
23 | Cc1ccc(-n2ncc(C(=O)N3CCN(Cc4ccccc4)CC3)c2C2CCN(C(=O)OC(C)(C)C)CC2)cc1 | inactive: 1.43% | 
24 | CC(=O)c1cc(-c2ccccc2)n(CCC(=O)Nc2ccc(C(C)C)cc2)c1C | inactive: -8.94% | 

Row | Structure (SMILES) | activity change, negative = inhibition | Potency
25 | Cc1ccc(-n2ccnc(NCCc3ccc(S(N)(=O)=O)cc3)c2=O)c(C)c1 | inactive: -3.23% | 
26 | CC(C)(C)OC(=O)N1CCC(c2c(C(=O)NCCN3CCCC3)cnn2-c2ccc(Cl)cc2)CC1 | inactive: 3.17% | 
27 | Cc1oc(-c2ccc(C(=O)NCc3ccc(F)cc3)cc2)nc1CS(=O)c1ccccc1 (stereo unspecified) | inactive: -3.99% | 
28 | CCOc1ccc(/C=C/c2nc(C#N)c(NC3CCCCC3)o2)cc1 | inactive: 1.61% | 
29 | CC(=O)c1cc2c(cc1N/C(=N/S(=O)(=O)c1ccccc1)c1ccc(Cl)cc1)OCO2 | inactive: -6.71% | 
30 | Cc1cc(C)cc(C(=O)Nc2c(C(=O)Nc3ccccc3F)oc3ccccc23)c1 | inactive: -9.52% | 
31 | COc1ccccc1OCCn1c(C(C)Oc2ccccc2)nc2ccccc21 (stereo unspecified) | inactive: 0.628% | 
32 | COc1ccccc1-c1nnc(SCC(N)=O)o1 | inactive: -4.86% | 
33 | CCN(CC)CCNC(=O)c1ccc(-c2nc(CS(=O)(=O)c3ccc(C)cc3)c(C)o2)cc1 | inactive: -2.54% | 
34 | CC(C)c1ccc(NC(c2nnc(-c3ccccc3)o2)c2ccc(F)cc2Cl)cc1 (stereo unspecified) | inactive: -16.3% | 
35 | Cc1ccccc1NC(=O)c1nc(S(C)(=O)=O)ncc1N(Cc1ccco1)Cc1sccc1C | inactive: 1.09% | 
36 | Cc1ccccc1OCC(=O)Nc1ccc(C(=O)OCc2cc(=O)n3ccsc3n2)cc1 | inactive: 0% | 
37 | Cc1ccc(-c2nc(NC(=O)CSc3ccc4ccccc4n3)ns2)cc1 | inactive: -6.57% | 
38 | CCN(C(=O)CCc1nc(-c2ccc(C)cc2)no1)c1cccc(Cl)c1 | inactive: -14.6% | 
39 | COc1cc2c(cc1OC)C(COc1ccc3c(C)cc(=O)oc3c1)N(C(=O)Cc1ccccc1)CC2 (stereo unspecified) | inactive: -10.7% | 
40 | COC(=O)c1cc2sccc2n1CC(=O)Nc1ccc(C)cc1C | inactive: 3.04% | 
41 | CCOc1ccccc1C(=O)NC1(C(F)(F)F)C(=O)Nc2c1c(=O)[nH]c(=O)n2-c1ccccc1 (stereo unspecified) | inactive: 6.39% | 
42 | Cc1cc(C)c(Cn2c3ccccc3c3cnn(CC(=O)NCCC4=CCCCC4)c(=O)c32)c(C)c1 | inactive: -1.59% | 
43 | COc1cccc(CNC(=O)c2ccc3nc(-c4ccccc4)c(-c4ccccc4)nc3c2)c1OC | inactive: 1.65% | 
44 | COc1ccc(Nc2nnc(-c3ccc(C)c(S(=O)(=O)NCc4nc5ccccc5[nH]4)c3)c3ccccc23)cc1 | inactive: 9.05% | 
45 | CCC(C)Sc1oc(-c2ccco2)nc1S(=O)(=O)c1ccc(Cl)cc1 (stereo unspecified) | inactive: -23.9% | 
46 | Cc1ccc(NC(=O)Cn2nnc(C(=O)NCCc3ccccc3)c2N)cc1 | inactive: 2.27% | 
47 | Clc1ccc(-c2csc(-c3nc(-c4ccc(Br)s4)cs3)n2)cc1 | inactive: 0.115% | 
48 | O=C(NCc1ccc(Cl)cc1)c1ccc2c(c1)NC(=O)C(CS(=O)(=O)Cc1ccc(F)cc1Cl)N2 (stereo unspecified) | inactive: -10.3% | 

Row | Structure (SMILES) | activity change, negative = inhibition | Potency
49 | O=C(CCN1CCN(CCO)CC1)Nc1ccc(Br)cc1 | inactive: 8.7% | 
50 | COc1ccc(C)cc1NC(=O)c1cc2ccccn2n1 | inactive: -7.17% | 
51 | CCc1ccc(NC(=O)C2CCCN(S(=O)(=O)c3cccc4nsnc34)C2)cc1 (stereo unspecified) | inactive: -17% | 
52 | COc1cccc(NC(=O)CCc2nnc3n(Cc4ccccc4Cl)c(=O)c4ccccc4n23)c1 | inactive: -0.748% | 
53 | Cc1ccc(NC(=O)c2c(C)nc3sc(C(=O)Nc4ccc(F)cc4)c(N)c3c2-c2ccc(Cl)cc2)c(C)c1 | inactive: -2.64% | 
54 | O=C1CC(c2nnc(Cc3c(F)cccc3Cl)o2)CN1c1ccccc1 (stereo unspecified) | inactive: -4.76% | 
55 | Cc1ccc(Nc2c(-c3ccc(N4CCOCC4)cc3)nc3cccc(C)n23)cc1 | inactive: -10.1% | 
56 | Cc1cccc(CN2C(=O)c3ccccc3S(=O)(=O)c3ccc(C(=O)N(C)Cc4ccccc4)cc32)c1 | inactive: 2.27% | 
57 | CCOc1ccccc1C(=O)Nc1ccc(-n2nncc2-c2ccccc2)cc1 | inactive: -20.1% | 
58 | CCOC(=O)c1ccc(NC2(c3ccccc3)C(=O)c3ccccc3C2=O)cc1 | inactive: 3.54% | 
59 | COc1ccccc1C(=O)Nc1nnc(S(=O)(=O)N2CCN(c3ccc(F)cc3)CC2)s1 | inactive: 6.36% | 
60 | CCOC(=O)c1ccc(NC(=O)c2sc3ccccc3c2Cl)cc1 | inactive: 12.5% | 
61 | Cc1ccc(-c2nnc3ccccc3c2C(=O)Nc2ccc(C)c(F)c2)cc1 | inactive: -6.9% | 
62 | CCc1nnc(SCc2nc(-c3cccc(Cl)c3)oc2C)c2cc3sc(C)cc3n12 | inactive: 5.33% | 
63 | COc1cc(OC)c(NS(=O)(=O)c2cc3c(cc2C)N(C(C)=O)CCO3)cc1Cl | inactive: 4.67% | 
64 | COc1ccccc1NC(=O)CN(c1cc(C)cc(C)c1)S(=O)(=O)c1c(C)[nH]c(=O)[nH]c1=O | inactive: -1.17% | 
65 | NC(=O)c1c(NC(=O)c2cc(-c3ccc(F)cc3)on2)sc2c1CCCC2 | inactive: -4.01% | 
66 | Cc1cccc(NC(=O)Cn2nnc(C(=O)NCc3cccs3)c2N)c1 | inactive: 2.89% | 
67 | CCC(C(=O)Nc1ccc(C(C)C)cc1)n1nc(C)n2c(cc3cc(C)ccc32)c1=O (stereo unspecified) | inactive: 0.0813% | 
68 | COc1ccc(Cl)cc1NC(=O)CCn1c(=O)c2cccn2c2ccccc21 | inactive: -13.2% | 
69 | CN(C)c1ccc(CNC(=O)C2CCCN(S(=O)(=O)c3ccc4c(c3)CCCC(=O)N4)C2)cc1 (stereo unspecified) | inactive: -8.67% | 
70 | Cc1ccc(C)c(Cn2c(=O)cc(C(F)(F)F)c3c(C)nn(C)c32)c1 | inactive: -5.57% | 
71 | Cc1ccccc1C(=O)NCc1nc(-c2ccc(Cl)cc2)no1 | inactive: 3.37% | 
72 | Cc1ccc(Nc2c3c(nc4nc(-c5cccs5)nn24)CCCC3)cc1F | inactive: -1.06% | 

Row | Structure (SMILES) | activity change, negative = inhibition | Potency
73 | COc1ccc(N2C(=O)CSC23C(=O)N(Cc2cccc(C(F)(F)F)c2)c2ccccc23)cc1 (stereo unspecified) | inactive: -5.23% | 
74 | CCOc1ccc2oc(=O)cc(CN3CCN(Cc4ccc(C)cc4)CC3)c2c1 | inactive: -13.7% | 
75 | Cc1oc(-c2ccc(Cl)cc2)nc1CS(=O)CC(=O)NCCc1ccccc1 (stereo unspecified) | inactive: 7.44% | 
76 | Cc1ccc(S(=O)(=O)c2nc(-c3cccs3)oc2SCC(=O)Nc2cc(C)cc(C)c2)cc1 |  | active: 20.7 µM
77 | COc1ccccc1OCC(=O)N(Cc1cccs1)C1CCS(=O)(=O)C1 (stereo unspecified) | inactive: 0.567% | 
78 | CCOC(=O)Cn1nc(C)c(NC(=O)COc2ccccc2)c1C | inactive: 0.06% | 
79 | COc1ccc(S(=O)(=O)NC(C)(C)C)cc1-c1nnc2c3ccccc3c(C)nn12 | inactive: -1.2% | 
80 | COc1ccccc1CNc1nc(-c2ccco2)nn1S(C)(=O)=O | inactive: 0% | 
81 | COc1ccc(-n2cc(-c3ccccc3)nc2SCC(=O)Nc2ccccc2C)cc1 | inactive: -4.29% | 
82 | CCOC(=O)N1CCc2c(sc(NCc3cccc(F)c3)c2C(=O)Nc2ccc(OC)cc2)C1 | inactive: -6.12% | 
83 | Cc1ccc(CNc2nc3ccc(Cl)cc3n3nnnc23)cc1 | inactive: -14.7% | 
84 | COC(=O)CC1Oc2ccc(F)cc2-n2cc(-c3ccc(C)cc3)nc21 (stereo unspecified) | inactive: -24.6% | 
85 | COc1cc(NC(=O)CCn2c(=O)oc3ccccc32)cc(OC)c1OC | inactive: -1.88% | 
86 | COc1cc(OC)c(NS(=O)(=O)c2c(C(=O)N3CCCCCC3)c(C)n(C)c2C)cc1Cl | inactive: -4.55% | 
87 | Cc1cc(-c2ccc(C)c(S(=O)(=O)Nc3ccccn3)c2)on1 | inactive: -2.19% | 
88 | COc1ccc(N(Cc2cccs2)C(=O)COc2cccc(C)c2C)cc1 | inactive: -1.25% | 
89 | CSc1ccc(NC(=O)C2CCN(c3ncccn3)CC2)cc1 | inactive: -1.58% | 
90 | CCN1CCN(c2ncc3c(n2)CCN(CC(C)C)C3)CC1 | inactive: 0% | 
91 | CCOc1ccc(-n2ccnc2SCC(=O)Nc2cccc3ccccc23)cc1 | inactive: -1.17% | 
92 | COc1ccc(Br)cc1CNC(=O)c1ccc2nc(C(C)C)oc2c1 | inactive: -7.37% | 
93 | COc1ccccc1CNC(=O)CCCCn1c(=O)c2ccccc2n(CC(=O)Nc2c(C)cc(C)cc2C)c1=O | inactive: -22.4% | 
94 | CCOc1ccccc1CNC(=O)CCC(=O)N1CCSc2ccccc21 | inactive: -1.46% | 
95 | COc1ccccc1Cc1nc2ccccc2nc1SCC(=O)Nc1ccc2c(c1)OCO2 | inactive: -13.6% | 
96 | CCCN(CCC)C(=O)CSc1c2c(nc3ccc(Cl)cc13)CCCC2 | inactive: -12% | 
